Screen size: about 50,000 compounds; about 800 (1.6%) showed an effect of 50% or more. The list shows a part of the results.

For the assay, the target named is Bcl-2-like protein 10 (Homo sapiens) (UniProt Q9HD36). Kind of assay: TR3 peptide-Bcl-B binding displacers, biochemical primary FP assay, phenotype converters (AID 1240).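 Further: 0% = Bcl-B with tracer peptide and DMSO and 100% = tracer peptide lacking Bcl-B.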 Particulars: GST-Bcl-B / FITC-TR3 peptide fluorescence polarization; stronger effect = higher value; compound at 3.75 mg/L. On the technique in general: Polarisation of emitted light reports the rotation of a fluorescent probe.
Chain of UniProt Q9HD36 (Q9HD36 whole entry, looked up): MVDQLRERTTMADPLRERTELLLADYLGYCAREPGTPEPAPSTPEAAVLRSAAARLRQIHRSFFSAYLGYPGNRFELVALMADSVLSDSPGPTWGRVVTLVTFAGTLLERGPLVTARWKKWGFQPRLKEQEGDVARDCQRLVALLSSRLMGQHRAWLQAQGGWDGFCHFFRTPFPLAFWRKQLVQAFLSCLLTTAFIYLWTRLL
Consider `COC(=O)c1c(NC(=O)c2sc3cc(C)ccc3c2Cl)sc(C)c1C`, for which the displacement amounted to 6%.

On to `Cc1cc(C(=O)NCCCN(C)C)ccc1[N+](=O)[O-]`, for which the displacement is 14.1%.

On to `COc1cccc(C(=O)N2c3cc(OC)ccc3-c3c(ssc3=S)C2(C)C)c1`, for which the displacement was -6.6%.

In the case of `O=C(CSc1nc2ccccc2[nH]1)N/N=C/c1ccccc1[N+](=O)[O-]`, the displacement stood at 9.4%.

For the molecule `COc1ccc(/C=C2/C(C)=C(C#N)c3nc(N)c(C#N)c(C)c32)c(OC)c1`, the displacement is -1%.

As for `O=C(/C=C/c1ccc2c(c1)OCO2)Nc1ccc(N2CCCCC2)cc1`, the displacement was -0.9%.

Take `COc1ccc(Cl)cc1C(=O)N1CCOCC1`: the displacement is -12.2%.

In the case of `O=C1CCCc2nn(-c3ccccc3)nc21`, the displacement was 3.2%.

In the case of `Cc1cc(C)nc(SCC(=O)Nc2ccccc2C(=O)O)n1`, the displacement worked out at 0.9%.

In the case of `O=C1/C(=C\c2cc(Cl)c(O)c(Cl)c2)SC(=S)N1c1ccccc1`, the displacement is -60.7%.

Take `O=C(NCCCn1ccnc1)c1cc(-c2ccc(Cl)cc2)nc2ccccc12`: the displacement worked out at 1%.

Consider `CCOCCOC(=O)C1=C(C)NC2=C(C(=O)CCC2)C1c1ccc(OC)c(OCc2ccccc2)c1` (configuration not stated), for which the displacement was found to be 0.6%.

`CCC(Oc1ccccc1)C(=O)N1CCN(C)CC1` (configuration not stated): the displacement is -0.2%.

Regarding `Cn1c2c(c(=O)[nH]c1=O)C(c1ccccc1)C1=C(N2)c2ccccc2C1=O` (configuration not stated), the displacement came out at 2.9%.

As for `Cc1nc2sccn2c1C(=O)N/N=C/c1ccccc1O`, the displacement was -0.3%.

With `COc1cccc(CN2CCN(C(=O)c3cccs3)CC2)c1OC`, the displacement is -7%.

Turning to `COc1cc(CNCc2ccccc2[N+](=O)[O-])cc(OC)c1`, the displacement was -1.7%.

For the molecule `N/C(=N\S(=O)(=O)Cc1ccccc1)Nc1nc2ccccc2o1`, the displacement was -2.3%.

As to `COc1cc2c(NCc3ccccc3)cc(O)c(CC(=O)Nc3ccc(Cl)cc3)c2cc1OC`, the displacement came to 1.5%.

For `Cc1ccc(CC2S/C(=N\N=C\c3ccco3)NC2=O)cc1` (configuration not stated), the displacement amounted to 35.4%.

Consider `O=C(COc1ccccc1[N+](=O)[O-])Nc1cc(-c2nc3ccccc3s2)ccc1Cl`, for which the displacement turned out to be 7.8%.

Take `CCOCCOC(=O)C1=C(C)NC2=C(C(=O)CCC2)C1c1ccccc1Cl` (configuration not stated): the displacement came to 2.2%.

On to `O=C(c1cccc([N+](=O)[O-])c1)N1CCc2ccccc2C1`, for which the displacement worked out at 7.8%.

With `COc1cc(NC(=O)C(C)Oc2ccccc2)c(Cl)cc1NC(=O)c1ccccc1` (configuration not stated), the displacement was 4.9%.

Consider `CC1(C)CC(=O)C(CC(=O)Nc2cccc3ccccc23)=C(O)C1`, for which the displacement came to 0.6%.

As for `CC(N=C(NS(=O)(=O)c1ccccc1)c1ccccc1)C(=O)O` (configuration not stated), the displacement came to 6.7%.

On to `CC(=O)c1cccc(NC(=O)COc2ccc(C(C)(C)C)cc2)c1`, for which the displacement is -0.3%.

With `S=c1oc(COc2ccc(Cl)cc2Cl)nn1CN1CCCCC1`, the displacement amounted to 8.7%.

Take `COc1cc(NC(=O)c2nn3c(c2Cl)NC(c2ccc(OC)c(OC)c2)CC3C(F)(F)F)cc([N+](=O)[O-])c1` (configuration not stated): the displacement worked out at 11.9%.

For `CC(C)Oc1cccc(C(=O)Nc2ccc3oc(-c4ccncc4)nc3c2)c1`, the displacement came out at 10%.

For `Cc1ccc(C2(c3ccc(C)cc3)CC2C(=O)Nc2ccccc2F)cc1` (configuration not stated), the displacement stood at 5.7%.

For `CCc1sc(-c2c(C#N)c(N)nc3c2CCCCCC3)cc1[N+](=O)[O-]`, the displacement came to 7.7%.

As for `Cc1ccc(S(=O)(=O)/N=C2/C=C(Cl)C(=O)c3ccccc32)cc1`, the displacement came out at 16.7%.

Regarding `COc1cc(-c2ccc(NC(=O)/C=C/c3ccco3)c(OC)c2)ccc1NC(=O)/C=C/c1ccco1`, the displacement stood at 2.6%.

On to `COc1ccc(S(=O)(=O)Nc2ccccc2C(N)=O)cc1`, for which the displacement came to 1.1%.

`CN(C)C(=O)C1(C)CSSC(C)(C(=O)N(C)C)CSSC(C)(C(=O)N(C)C)CSS1` (configuration not stated): the displacement was found to be 15.1%.

Regarding `O=C(NCc1ccco1)c1cc2n(n1)C(C(F)(F)F)CC(c1ccc(Br)cc1)N2` (configuration not stated), the displacement amounted to 0.5%.

In the case of `COc1ccc(OC)c(NC(=O)CN(CCc2ccccc2)S(=O)(=O)c2ccc(Cl)cc2)c1`, the displacement was -9.5%.

Consider `Cc1ccc([N+](=O)[O-])cc1-c1ccc(/C=C2/C(=O)NN(c3ccc(F)cc3)C2=O)o1`, for which the displacement was -9.8%.

For the molecule `O=C(c1cc2nc(-c3ccc([N+](=O)[O-])cc3)cc(C(F)(F)F)n2n1)N1CCc2ccccc2C1`, the displacement came out at 0.3%.

With `Cc1ccc(NC(=O)CSc2nc(C(F)(F)F)cc(=O)[nH]2)cc1`, the displacement is -8.3%.

Regarding `Cc1cc(C)n(C(=O)Nc2ccccc2)n1`, the displacement is -7.9%.

Turning to `CC1=C(C(=O)OCc2ccccc2)C(c2ccccc2[N+](=O)[O-])CC(=O)N1` (configuration not stated), the displacement was -8.1%.

Regarding `CC(C)NC(=O)C(=O)NNC(=O)C12CC3CC(CC(C3)C1)C2`, the displacement is -10.1%.

Consider `CCCCOC(=O)c1c(NC(=O)C2C3CCC(C3)C2C(=O)O)sc2c1CCCC2` (configuration not stated), for which the displacement was -9.6%.

Turning to `O=C(NCC1CCCO1)C1CN(S(=O)(=O)c2ccccc2)CCN1S(=O)(=O)c1ccccc1` (configuration not stated), the displacement was -1.3%.

As for `Cc1ccnc(NC(=O)C2CCCCC2C(=O)O)c1` (configuration not stated), the displacement is -13.1%.

As for `CC(Oc1ccc2c3c(c(=O)oc2c1)CCC3)c1ccccc1` (configuration not stated), the displacement came to 10.3%.

In the case of `O=C(NC(=S)N1CCCCCC1)c1cccnc1`, the displacement was 1.2%.

Turning to `COc1ccc(CN2CCN(C(=O)c3cccs3)CC2)c(OC)c1`, the displacement was 7.8%.

For `O=C(N/N=C/c1ccc(O)c(Br)c1)c1ccccc1`, the displacement was 1.8%.

As to `O=[N+]([O-])c1ccc(S(=O)(=O)n2cccn2)cc1`, the displacement was 1.4%.

In the case of `CC(=O)Nc1ccc(NC(=S)NC(=O)c2ccco2)cc1`, the displacement stood at 19.4%.

Take `O=c1[nH]nc(Cc2nc3ccccc3s2)c2ccccc12`: the displacement turned out to be 10%.

On to `CC(C)C(=O)Nc1ccc(-c2cnc(-c3ccc(NC(=O)C(C)C)cc3)nc2)cc1`, for which the displacement came to 7.5%.

Turning to `Cc1ccc(N(Cc2ccc(C(=O)NCCSc3ccc(Cl)cc3)cc2)S(C)(=O)=O)cc1C`, the displacement turned out to be 7.4%.

For `COC(=O)c1ccccc1NC(=O)c1cnn2c(C(F)(F)F)cc(-c3ccc(OC)c(OC)c3)nc12`, the displacement turned out to be 11.9%.

As to `CCCN(CCC)c1ccc(/C=N/NC(=O)Cc2ccccc2)cc1`, the displacement is -1%.

On to `NN1C(=O)/C(=C\c2ccc([N+](=O)[O-])cc2)SC1=S`, for which the displacement amounted to 16.1%.

For the molecule `O=C(CCNc1ccccc1)c1cccc([N+](=O)[O-])c1`, the displacement is 1.8%.

On to `O=C(NCCCNc1ccc([N+](=O)[O-])cc1)c1ccccc1Cl`, for which the displacement was 11.4%.

`CNc1nc(OCC(F)(F)F)nc(N2CCOCC2)n1`: the displacement is -5.8%.

With `Cc1cc(C)cc(NC(=O)C2CC(=O)N(c3ccc(Cl)cc3)C2)c1` (configuration not stated), the displacement came to 4.5%.

Regarding `Cc1oc(C(C)(C)C)cc1C(=O)Nc1ccc(NC(=O)C(=O)O)cc1`, the displacement was -5.5%.

Consider `Cc1ccc(N2C(=O)CC(SCc3ccccc3)C2=O)cc1` (configuration not stated), for which the displacement was determined as 2.4%.

On to `COc1ccccc1NC(=O)CSc1nc2ccccc2c(=O)n1-c1ccccc1`, for which the displacement was determined as 13.2%.

Take `Cc1ccc(-c2csc(-c3cc4cc([N+](=O)[O-])ccc4oc3=O)n2)cc1`: the displacement is -7.9%.

The values above are taken from PubChem BioAssay AID1240 (Sanford-Burnham Center for Chemical Genomics, 2008).
